# Laboratory results published in publication PMC4336329 (PLoS ONE, 2015).
# Screen size: about 310,000 compounds; about 14,000 (4.5%) showed an effect of 50% or more. The effect is printed as a negative number. This is one part of the list.
# Molecular target: human ether-à-go-go-related gene (hERG) potassium channel (human, UniProt Q12809)
# Test: primary screen, population patch clamp on CHO cells stably expressing hERG
# 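Note: peak tail current of the secondary pulse compared with the same well before compound.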
# Sequence of human ether-à-go-go-related gene (hERG) potassium channel (Q12809 whole entry, looked up): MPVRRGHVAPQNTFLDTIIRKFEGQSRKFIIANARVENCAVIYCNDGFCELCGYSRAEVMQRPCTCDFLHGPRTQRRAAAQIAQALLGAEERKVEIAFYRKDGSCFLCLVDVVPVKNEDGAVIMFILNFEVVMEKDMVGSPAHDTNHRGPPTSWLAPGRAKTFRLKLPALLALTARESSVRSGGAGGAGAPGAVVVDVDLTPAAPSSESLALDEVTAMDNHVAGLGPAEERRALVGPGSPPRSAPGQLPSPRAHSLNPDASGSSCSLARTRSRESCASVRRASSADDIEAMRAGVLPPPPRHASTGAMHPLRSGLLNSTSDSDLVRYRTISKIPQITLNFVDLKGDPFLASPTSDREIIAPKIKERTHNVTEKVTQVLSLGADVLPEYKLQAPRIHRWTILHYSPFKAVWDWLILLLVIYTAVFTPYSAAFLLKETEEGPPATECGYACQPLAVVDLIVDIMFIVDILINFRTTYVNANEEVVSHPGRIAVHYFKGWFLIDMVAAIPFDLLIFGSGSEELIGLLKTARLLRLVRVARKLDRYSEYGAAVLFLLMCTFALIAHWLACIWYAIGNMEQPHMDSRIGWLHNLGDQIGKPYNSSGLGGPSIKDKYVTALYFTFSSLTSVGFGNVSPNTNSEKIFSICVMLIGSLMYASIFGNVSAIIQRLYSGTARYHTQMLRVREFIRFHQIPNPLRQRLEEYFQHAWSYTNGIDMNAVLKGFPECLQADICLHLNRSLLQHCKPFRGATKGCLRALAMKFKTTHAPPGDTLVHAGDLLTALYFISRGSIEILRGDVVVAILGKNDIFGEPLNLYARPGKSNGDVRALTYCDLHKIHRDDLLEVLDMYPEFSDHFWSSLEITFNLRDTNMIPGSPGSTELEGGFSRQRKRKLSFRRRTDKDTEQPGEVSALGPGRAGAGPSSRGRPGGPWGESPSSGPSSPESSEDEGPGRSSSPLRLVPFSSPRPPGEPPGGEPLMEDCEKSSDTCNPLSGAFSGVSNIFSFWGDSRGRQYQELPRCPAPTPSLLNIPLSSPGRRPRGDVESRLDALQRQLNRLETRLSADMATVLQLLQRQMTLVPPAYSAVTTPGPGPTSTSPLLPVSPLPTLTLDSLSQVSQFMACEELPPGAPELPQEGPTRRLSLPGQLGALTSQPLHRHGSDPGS
row,Structure (SMILES),"hERG current change (%, negative = inhibition) at 10uM"
1,Cc1cc(=O)oc2cc(OCC(=O)NCCc3ccccc3)ccc12,20.1%
2,CCOC(=O)CN1C(=O)S/C(=C/c2ccc(C)o2)C1=O,-72.7%
3,Cc1cc([N+](=O)[O-])c(N2CCC[C@@H]2C(=O)O)c([N+](=O)[O-])c1,18.2%
4,COc1ccc(OCC(=O)N2CCCC2=O)c([N+](=O)[O-])c1,14.8%
5,COc1ccccc1NC(=O)CSc1nnc(CSc2nc(C)cc(C)n2)o1,-0.217%
6,CC(C)[C@H](NC(=O)NCc1cccs1)C(=O)O,18.7%
7,COc1ccc2cc(C)c(SCC(=O)Nc3cc(C)on3)nc2c1,6.5%
8,Cc1cccc(-n2nnc3c(=O)n(CC(=O)Nc4cc(C)on4)cnc32)c1,13.8%
9,O=C(NC(=S)NCC1CCCO1)c1ccccc1F (centres unmarked),12.6%
10,NC(=O)CSc1nnc(NC(=O)c2ccc(Br)o2)s1,22.2%
11,COC(=O)c1cc(S(=O)(=O)N2CCC(c3ccccc3)C2)c[nH]1 (centres unmarked),-26.1%
12,COc1ccc(NC(=O)c2ccc(Br)o2)cc1,-1.05%
13,Cc1ccc(S(=O)(=O)NN2C(=O)c3ccccc3NC2c2ccccn2)cc1 (centres unmarked),1.49%
14,CCCN(C1CCS(=O)(=O)C1)S(=O)(=O)c1ccc2ccccc2c1 (centres unmarked),-29%
15,CC(C)(C)c1cc(-c2ccccc2)no1,8.56%
16,COc1ccc(CC(=O)Nc2ccc(S(=O)(=O)N3CCC(C)CC3)cc2)c(OC)c1,7.15%
17,COC(=O)c1ccc(NC(=O)Cn2nc(C)cc2C)cc1,18.8%
18,CCc1ccc(NC(=O)CSc2nncn2-c2cccnc2)cc1,-3.57%
19,CCCCn1c(N)c(N(CCC(C)C)C(=O)C2CCN(C(=O)c3ccccc3C)CC2)c(=O)[nH]c1=O,3.65%
20,CC(=O)Nc1ccc(CN2CCN(c3cccc(C(F)(F)F)c3)CC2)cc1,-38%
21,O=C(CCCc1ccccc1)Nc1cccnc1,-13.7%
22,C/C(=N\Nc1nc(-c2ccccc2)cs1)c1cccs1,11.9%

row,Structure (SMILES),"hERG current change (%, negative = inhibition) at 10uM"
1,CC(C)CCNC(=O)c1ccc2c(c1)ncn2C1CCCCC1,-42.8%
2,O=C(Nc1c(F)cccc1F)c1ccc(-n2cncn2)nc1,7.84%
3,O=S(=O)(NCc1cccnc1)c1ccc(Cl)c(Cl)c1Cl,-20.8%
4,O=C(O)/C=C/c1ccc(Oc2ncccn2)cc1,-12%
5,Cc1cc(OC(C)C(=O)NCCCN2CCOCC2)c2c(C)cc(=O)oc2c1 (centres unmarked),2.25%
6,O=C1Nc2c(c(=O)[nH]c(=O)n2-c2ccccc2F)C(C(F)(F)F)(C(F)(F)F)N1,22.5%
7,O=C(N/N=C/c1cc([N+](=O)[O-])ccc1O)c1cccc2ccccc12,20.6%
8,N#CC1(NC(=O)COC(=O)c2cc([N+](=O)[O-])ccc2N2CCOCC2)CCCCC1,-55.3%
9,COc1ccc(-c2noc(CSc3ccccc3)n2)cc1OC,-18.6%
10,CCCCN(C(=O)COC(=O)c1nc2nc(C)cc(C)n2n1)C1CCS(=O)(=O)C1 (centres unmarked),0.242%
11,COc1ccc(S(=O)(=O)NCc2ccc(C)cc2)cc1,-4.83%
12,Cc1nc(NC(=O)c2ccccc2)sc1-c1csc(Nc2ccc(F)cc2)n1,19%
13,COc1ccc(OC)c(NC(=O)C(=O)/C=C(\O)c2cc(OC)ccc2OC)c1,-19%
14,CCCOC(=O)c1ccc2c(c1)C(=O)N(c1ccccc1)C2=O,6.08%
15,Cc1cc(CN2CCCC(N3CCc4ccccc4C3)C2)cc(C)c1O (centres unmarked),-35.9%
16,O=C(COc1ccc2ccc(=O)oc2c1)NC(Cc1ccc(Cl)cc1)C(=O)O (centres unmarked),10.3%
17,COc1cccc(CNC(=O)C2CCN(c3nn4c(=O)cc(C)nc4s3)CC2)c1,4.82%
18,CN1CCN(c2ccc(NC(=O)c3ccc4c(c3)OCCO4)cc2)CC1,-35.6%
19,Cc1ccc(CNC(=O)C23CN(Cc4ccccc4)CC2C(c2ccc([N+](=O)[O-])cc2)=NO3)o1 (centres unmarked),-49.6%
20,COc1ccc(NC(=O)c2ccc3c(SCC(=O)O)c4c(nc3c2)CCCC4)c(OC)c1,0.828%
21,CC(C)c1ccc(NC(=O)NN2CCOCC2)cc1,3.62%
22,CS(=O)(=O)N1CCN(CC(=O)NC2CCCC2)CC1,-11.4%
